Results from the supplement of paper PMC4967469.
The IC50 comes from the fitted curve, where viability falls to half of the control; a limit (>, <) means that the fit lies beyond the doses tested. AUC sums up the same curve from the lowest dose to the 256-fold higher top dose; it is 1 without any effect and falls as sensitivity rises. For some assays here: An inferred top dose is not printed in the source and was worked back from the curve model. For some assays here: Where an entry number is given, a second screen of the drug exists; the two often differ.

Key:
Assay in all cases: Viability of human cancer cell lines after 72 h of drug (GDSC screen)
LFM-A13 = compound: C/C(O)=C(\C#N)C(=O)Nc1cc(Br)ccc1Br [LFM-A13]; settings: top dose 16 µM; top dose inferred
Procedure: (§1)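 Human cancer cell lines in 384-well plates, medium with 10% serum, drug for 72 h over a 256-fold dose range (nine 2-fold or five 4-fold steps up to the top dose). Adherent lines were fixed and stained with the nucleic acid dye Syto60, suspension lines read with resazurin; signal relative to control wells, capped at 0 and 100%. One two-parameter sigmoid per drug and line, fitted in a mixed model over all curves with the slope shared within a line.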

Bicalutamide = compound: CC(O)(CS(=O)(=O)c1ccc(F)cc1)C(=O)Nc1ccc(C#N)c(C(F)(F)F)c1 [Bicalutamide]; settings: top dose inferred
Procedure: as §1

AUY922 = compound: CCNC(=O)c1noc(-c2cc(C(C)C)c(O)cc2O)c1-c1ccc(CN2CCOCC2)cc1 [AUY922]; settings: top dose 0.256 µM; top dose inferred
Procedure: as §1

KIN001-270 = compound: Cc1ccc(Nc2cc(-c3cccc(N4C(=O)c5ccccc5C4=O)c3)ncn2)cc1NS(C)(=O)=O [KIN001-270]; settings: top dose 20 µM; top dose inferred
Procedure: as §1

GNF-2 = compound: NC(=O)c1cccc(-c2cc(Nc3ccc(OC(F)(F)F)cc3)ncn2)c1 [GNF-2]; settings: top dose 1.28 µM; top dose inferred
Procedure: as §1

Gemcitabine = compound: Nc1ccn([C@@H]2O[C@H](CO)[C@@H](O)C2(F)F)c(=O)n1 [Gemcitabine]; settings: top dose 1.024 µM
Procedure: as §1

T0901317 = compound: O=S(=O)(c1ccccc1)N(CC(F)(F)F)c1ccc(C(O)(C(F)(F)F)C(F)(F)F)cc1 [T0901317]; settings: top dose 10.24 µM; top dose inferred
Procedure: as §1

MP470 = compound: S=C(NCc1ccc2c(c1)OCO2)N1CCN(c2ncnc3c2oc2ccccc23)CC1 [MP470]; settings: top dose 20 µM; top dose inferred
Procedure: as §1

TW-37 = compound: CC(C)c1ccccc1Cc1cc(C(=O)Nc2ccc(S(=O)(=O)c3ccccc3C(C)(C)C)cc2)c(O)c(O)c1O [TW-37]; settings: top dose 5 µM
Procedure: as §1

[1] = top dose 1.024 µM, screen: GDSC drug entry 150
[2] = top dose 10 µM, screen: GDSC drug entry 1502

| Cell Line | AUC (LFM-A13) | IC50 (LFM-A13) | AUC (Bicalutamide; [1]) | IC50 (Bicalutamide; [1]) | AUC (AUY922) | IC50 (AUY922) | AUC (KIN001-270) | IC50 (KIN001-270) | AUC (GNF-2) | IC50 (GNF-2) | AUC (Gemcitabine) | IC50 (Gemcitabine) | AUC (T0901317) | IC50 (T0901317) | AUC (MP470) | IC50 (MP470) | AUC (Bicalutamide; [2]) | IC50 (Bicalutamide; [2]) | AUC (TW-37) | IC50 (TW-37) |
| --- | --- | --- | --- | --- | --- | --- | --- | --- | --- | --- | --- | --- | --- | --- | --- | --- | --- | --- | --- | --- |
| HCC1599 (breast, suspension) | 0.98 | > 16 µM | 0.977 | > 1.02 µM | 0.695 | 0.0617 µM | 0.968 | > 20 µM | 0.981 | > 1.28 µM | 0.449 | 0.0454 µM | 0.951 | > 10.2 µM | 0.905 | > 20 µM | – | – | – | – |
| NCI-H2171 (small cell lung carcinoma, suspension) | 0.991 | > 16 µM | 0.992 | > 1.02 µM | 0.792 | 0.0993 µM | 0.979 | > 20 µM | 0.991 | > 1.28 µM | 0.872 | 0.757 µM | 0.985 | > 10.2 µM | 0.934 | > 20 µM | – | – | – | – |
| ES3 (Ewing sarcoma, adherent) | 0.969 | > 16 µM | 0.985 | > 1.02 µM | 0.642 | 0.0405 µM | 0.932 | > 20 µM | 0.946 | > 1.28 µM | 0.461 | 0.05 µM | 0.98 | > 10.2 µM | 0.753 | 7 µM | 0.974 | > 10 µM | – | – |
| HCC-33 (small cell lung carcinoma, adherent) | 0.983 | > 16 µM | 0.987 | > 1.02 µM | 0.864 | 0.229 µM | 0.977 | > 20 µM | 0.985 | > 1.28 µM | 0.845 | 0.751 µM | 0.985 | > 10.2 µM | 0.93 | > 20 µM | – | – | – | – |
| MV-4-11 (leukaemia, suspension) | 0.974 | > 16 µM | 0.99 | > 1.02 µM | 0.298 | 0.00488 µM | 0.98 | > 20 µM | 0.99 | > 1.28 µM | – | – | 0.837 | 5.2 µM | 0.764 | 6.07 µM | 0.975 | > 10 µM | 0.339 | 0.122 µM |
| NCI-H748 (small cell lung carcinoma, suspension) | 0.942 | > 16 µM | 0.976 | > 1.02 µM | 0.882 | > 0.256 µM | 0.915 | > 20 µM | 0.98 | > 1.28 µM | 0.659 | 0.201 µM | 0.978 | > 10.2 µM | 0.87 | > 20 µM | – | – | – | – |
| HEL (acute myeloid leukaemia, semi-adherent) | 0.965 | > 16 µM | 0.991 | > 1.02 µM | 0.498 | 0.0158 µM | 0.981 | > 20 µM | 0.992 | > 1.28 µM | – | – | 0.955 | > 10.2 µM | 0.89 | 16.2 µM | 0.99 | > 10 µM | 0.544 | 0.403 µM |
| Hs-445 (Hodgkin lymphoma, suspension) | 0.988 | > 16 µM | 0.988 | > 1.02 µM | 0.497 | 0.0157 µM | 0.966 | > 20 µM | 0.989 | > 1.28 µM | 0.041 | < 0.004 µM | 0.988 | > 10.2 µM | 0.879 | 17.8 µM | 0.988 | > 10 µM | – | – |
| BC-3 (B-cell lymphoma, suspension) | 0.989 | > 16 µM | 0.988 | > 1.02 µM | 0.537 | 0.02 µM | 0.96 | > 20 µM | 0.989 | > 1.28 µM | 0.712 | 0.235 µM | 0.951 | > 10.2 µM | 0.855 | 13.4 µM | – | – | – | – |
| A704 (kidney, adherent) | 0.894 | > 16 µM | 0.984 | > 1.02 µM | – | – | 0.914 | > 20 µM | 0.975 | > 1.28 µM | 0.381 | 0.0304 µM | 0.982 | > 10.2 µM | 0.902 | > 20 µM | 0.98 | > 10 µM | – | – |
| KCL-22 (chronic myeloid leukaemia, suspension) | 0.989 | > 16 µM | 0.991 | > 1.02 µM | 0.504 | 0.0164 µM | 0.982 | > 20 µM | 0.701 | 0.264 µM | 0.309 | 0.0207 µM | 0.9 | 9.39 µM | 0.89 | 16.6 µM | 0.99 | > 10 µM | – | – |
| CAL-148 (breast, suspension) | 0.983 | > 16 µM | 0.989 | > 1.02 µM | 0.647 | 0.0394 µM | 0.972 | > 20 µM | 0.989 | > 1.28 µM | 0.399 | 0.0347 µM | 0.978 | > 10.2 µM | 0.875 | 17 µM | – | – | – | – |
| KP-N-YS (neuroblastoma, adherent) | 0.949 | > 16 µM | 0.981 | > 1.02 µM | 0.706 | 0.0671 µM | 0.911 | > 20 µM | 0.981 | > 1.28 µM | – | – | 0.976 | > 10.2 µM | 0.839 | 16.6 µM | – | – | – | – |
| SU-DHL-1 (anaplastic large cell lymphoma, suspension) | 0.997 | > 16 µM | 0.996 | > 1.02 µM | 0.764 | 0.07 µM | 0.997 | > 20 µM | 0.997 | > 1.28 µM | 0.269 | 0.0176 µM | 0.988 | > 10.2 µM | 0.976 | > 20 µM | – | – | – | – |
| NK-92MI (lymphoid neoplasm, suspension) | 0.963 | > 16 µM | 0.988 | > 1.02 µM | 0.583 | 0.0266 µM | – | – | 0.982 | > 1.28 µM | 0.22 | 0.0105 µM | – | – | – | – | – | – | – | – |
